# Measurements as given in the supplement of paper PMC12217912.
# Some of the results follow. The full chains were built here from the parent and the listed change. Values near 0.05 are background.
# B1: TEV protease; numbered along this chain (parent)
# chain: MGESLFKGPRDYNPISSSICHLTNESDGHTTSLYGIGFGPFIITNKHLFRRNNGTLVVQSLHGVFKVKDTTTLQQHLVDGRDMIIIRMPKDFPPFPQKLKFREPQREERICLVTTNFQTKSMSSMVSDTSCTFPSGDGIFWKHWIQTKDGQCGSPLVSTRDGFIVGIHSASNFTNTNNYFTSVPKNFMELLTNQEAQQWVSGWRLNADSVLWGGHKVFMVKPEEPFQPVKEATQL
# Variants of: B1
# Assay: raw area under fraction-flipped curve 0-4 h after induction (AUC4h, not background-subtracted), DNA-recorder readout of cleavage of the substrate (dimensionless); higher = more cleavage of the substrate by the protease variant
# Conditions: temperature: 34 °C; time window: 0-4 h after rhamnose induction
# Description: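 In vivo DNA recorder in E. coli TOP10(DE3) ΔrhaA at 34 °C. Each TEVp single-site mutant (parent TEVp 0) is paired with a single-site variant of the 7-mer TEVs (canonical ENLYFQ|S). The substrate sits between flexible linkers in a Bxb1-sfGFP-TEVs-SsrA fusion, so cleavage stabilises Bxb1 and speeds flipping of a recombination array, read by NGS. The value is the raw area under the fraction-flipped curve over 0-4 h after rhamnose induction (AUC4h), with ≥20 reads per time point. It is not background-subtracted; inactive controls average about 0.047.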
# 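Further: Bxb1 expression induced with 0.2% (w/v) L-rhamnose at OD600 near 0.5, cultures sampled hourly, flipped fraction per protease–substrate barcode pair counted by paired-end Illumina sequencing.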
Variant,area with substrate ENLYFQA,area with substrate ENLYFQC,area with substrate ENLYFQG,area with substrate ENLYFQH,area with substrate ENLYFQI,area with substrate ENLYFQK,area with substrate ENLYFQM,area with substrate ENLYFQP,area with substrate ENLYFQR,area with substrate ENLYFQS,area with substrate ENLYFQT,area with substrate ENLYFQV,area with substrate ENLYFQW,area with substrate ENLYFQL,area with substrate ENLYFQQ,area with substrate ENLYFQY,area with substrate ENLYFQD,area with substrate ENLYFQE,area with substrate ENLYFQF,area with substrate ENLYFQN
P89S,0.0904,0.0991,0.0915,0.0761,0.0599,0.0627,0.0909,0.0581,0.056,0.0875,0.0536,0.0742,0.06,–,–,–,–,–,–,–
K90W,0.119,0.116,–,0.092,0.0538,0.067,0.0905,0.0571,0.0555,0.0949,0.0595,0.0568,0.0771,0.0574,0.0781,0.0896,–,–,–,–
F92C,0.0681,0.104,0.0942,0.0792,–,0.0659,0.0989,0.0603,0.0725,0.0992,0.0708,0.0653,0.0628,0.0613,0.0777,0.053,0.0655,0.0856,0.084,0.0744
P93M,0.0941,0.112,–,–,0.0519,–,0.107,0.0451,0.0554,0.102,0.0619,–,0.0662,0.0604,0.0742,0.0745,–,0.0815,–,–
K98L,0.0771,–,–,–,0.0464,–,0.0646,0.0455,0.0628,0.0988,0.0656,0.0549,–,0.0686,0.0582,0.0683,0.0572,–,–,–
R102H,0.0409,0.0601,0.0614,0.0473,0.0546,0.0412,–,–,0.0602,0.0618,0.0555,–,0.0451,0.0546,–,–,–,–,0.0466,0.0452
Q105D,0.0947,0.129,0.0758,0.0761,0.0594,0.0636,0.0487,0.0651,0.0559,0.105,0.0827,0.0602,0.061,0.0798,–,0.0699,0.0816,0.0239,0.0597,0.0686
Q105R,0.0847,0.137,0.102,–,0.0583,0.0641,0.102,0.054,0.0671,0.104,0.0682,0.0542,0.0612,0.0612,0.0803,0.0853,0.0701,–,0.081,0.0872
R106A,0.0962,0.126,–,0.0848,0.0643,–,0.0885,0.0559,0.065,0.105,0.0681,0.0724,–,0.0437,–,0.0529,–,–,–,0.0871
E108A,0.0545,0.0781,0.0685,0.0464,0.0538,–,–,0.0593,0.046,0.0654,0.0489,0.0559,0.0457,–,–,0.0616,–,0.0574,0.0525,0.056
R109G,0.0861,0.125,0.0858,0.0842,0.0541,–,–,0.0599,0.0577,0.0935,–,0.068,0.0713,0.0436,–,–,0.0745,–,–,0.0749
R109I,0.079,0.128,0.0885,0.0774,0.071,0.0585,0.0865,–,0.0694,0.0898,0.0535,–,–,0.0599,0.076,0.0812,0.0693,0.0631,–,0.0635
R109W,0.0951,0.116,–,0.0931,0.0609,0.067,0.083,0.0839,0.065,0.0867,0.0687,0.0516,0.0742,0.0587,–,–,0.0367,–,0.0686,0.069
I110D,0.0504,0.0483,0.0389,0.0468,0.0513,0.0381,0.0499,0.0528,0.0487,0.056,0.0684,0.0616,0.0641,–,0.0427,0.0583,–,–,–,0.043
I110G,0.0488,0.0513,0.0581,0.0574,0.0598,–,–,0.0348,0.0425,0.054,0.05,0.0483,0.0492,0.0463,–,–,0.0673,–,–,0.0538
I110T,0.0794,0.0879,0.072,0.0752,0.052,0.0543,0.0625,0.0544,0.0516,0.0803,0.0683,–,0.0535,0.0547,–,0.0474,–,0.0703,0.0465,0.0672
C111M,0.102,0.109,0.103,–,0.0489,0.0678,0.0655,0.0575,0.0788,0.0911,0.0624,–,–,0.0598,–,–,0.0733,–,0.0707,0.0715
C111S,0.126,0.117,0.102,0.0535,0.0633,0.0925,0.0975,0.0509,0.0614,0.11,0.0532,0.0719,0.0458,0.0611,0.0654,0.0835,0.0547,–,0.0631,0.0771
V113G,0.0855,–,0.0737,–,–,0.0548,0.0821,–,0.0501,0.0794,0.0772,–,0.055,–,–,–,–,–,–,–
N116S,0.0993,0.113,0.0899,0.0731,–,0.0708,0.0925,0.0767,0.0693,0.111,0.0681,0.0617,–,0.0613,–,0.0705,0.0821,–,0.0652,0.0669
S121M,0.0646,0.123,0.0873,0.0838,0.0639,0.0781,0.0929,–,0.0508,0.0996,0.0692,0.018,0.0673,0.0632,–,–,0.0671,0.0648,–,0.0652
S123D,0.0788,0.116,0.0858,0.0733,0.059,0.0652,–,0.0611,0.0504,0.0976,0.0706,0.0517,0.0694,0.0593,0.0035,0.0815,–,–,–,0.0766
S124P,0.101,–,–,0.0885,–,0.0658,0.0962,–,0.0592,0.102,0.0461,0.0684,0.064,0.0633,0.0691,0.0727,–,–,0.08,0.074
S124R,0.109,0.128,0.0906,0.0772,0.0525,–,–,0.0604,0.0718,0.111,0.0643,0.0634,0.082,0.0582,–,0.0757,0.0686,–,–,0.0719
